Test results reported in paper PMC9708679, “Structures of the R-type human Cav2.3 channel reveal conformational crosstalk of the intracellular segments” (Nature Communications, 2022).

Key:
[1] = target: T1, CH2-deleted human Cav2.3 α1 subunit (ΔCH2) (human, UniProt Q15878-1 1-2313, residues 773-791 of the α1 subunit were deleted); experiment: cryo-EM structure; ΔCH2 Cav2.3 complex co-expressed with α2δ-1 and β3 in HEK293F and co-purified by the same protocol; 3.1 Å; 3D variability analysis of low pass-filtered maps in cryoSPARC; settings: both partners purified
T1 construct: Cav2.3 α1 subunit, human, CACNA1E, Uniprot Q15878-1 (2,313 residues) with the entire CH2II helix (residues 773-791) deleted; pCAG vector; deletion made by two-step PCR; also called Cav2.3-ΔCH2; CH2II-truncated mutant; source: HEK293F, transiently co-transfected with α2δ-1 and β3, purified as a complex (anti-Flag M2 resin, Superose 6 SEC) in GDN; not shown: Flag, N-terminal, kept

[2] = target: T2, human Cav2.3 α1 subunit (full-length, wild type) (human, UniProt Q15878-1 1-2313); experiment: cryo-EM structure; wild-type Cav2.3 complex (α1, α2δ-1, β3) co-expressed in HEK293F and co-purified; 25 mM HEPES pH 7.4, 150 mM NaCl, 2 mM CaCl2, 0.01% GDN; about 20 mg/mL with α2δ-1 in excess; 220 μM SNX-482 added to two of three batches; 3.1 Å; settings: both partners purified
T2 construct: Cav2.3 α1 subunit, human, codon-optimized cDNA of CACNA1E, 2,313 residues, Uniprot Q15878-1; pCAG vector; also called WT Cav2.3; CACNA1E; source: HEK293F, transiently co-transfected with α2δ-1 and β3, purified as a complex (anti-Flag M2 resin, Superose 6 SEC) in GDN; not shown: Flag, N-terminal, kept

binding result [1]: binds | binding result [2]: binds
B1: human α2δ-1 subunit (natural protein)
chain: not shown
notes: α2δ-1 subunit, human, codon-optimized cDNA of CACNA2D1, 1,103 residues, Uniprot […]; Expressed from the whole 1,103-residue cDNA; also called CACNA2D1; source: HEK293F, transiently co-transfected with α1 and β3, purified as a complex (anti-Flag M2 resin, Superose 6 SEC) in GDN
